PubChem BioAssay AID1345083 (National Center for Advancing Translational Sciences (NCATS), 2018)
Values joined by “and” are separate entries in the source; they are usually repeats but may differ in a detail not shown here. Equal values may be shown once. The whole screen tested about 94,000 compounds, of which about 6,200 (6.6%) were called active. Inconclusive means that the source gave no clear call. Such entries were picked first, then a sample of the others. The call rests on the fitted dose curve; in most records, active means well fitted inhibition curve with a large enough effect; inconclusive means small, poorly fitted or top-dose-only effect; inactive means flat fitted curve, though single readings scatter. A potency beside an inconclusive call is a rough fit, not a confirmed value.

Experiment: Cytotoxic Profiling in HEK 293 Cell Line of Diverse Libraries Using Quantitative High-Throughput Screening; further: nearly all actives have a fitted effect of over 60% in size
Conditions: HEK 293 viability, ATP luminescence (CellTiter-Glo), 48-72 h; activity change, negative = cytotoxicity: at 115 µM (top of the series) unless noted; series mostly up to 115 µM
Method in brief: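 Viability of HEK 293 cells, plated at 250 cells/well, was judged by cellular ATP after compound treatment for 48 or 72 hr. Luminescence was imaged 10 min after CellTiter-Glo addition at room temperature.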
On the % scale 0 is the no-effect control and ±100 the full control effect; potency means the concentration at half of the fitted maximal effect; tags describe the fitted curve by direction and shape.

Which “activity change, negative = cytotoxicity” value does the source give for `CSc1ccc(CNC(=O)c2cc3c(N4CCSCC4)nc(C)cn3n2)cc1` here?
Its value is inactive: -26%.

Which Potency does the source give for `O=C(NCC1CCCO1)c1cc2n(n1)CC(c1ccc(Br)cc1)OC2` (configuration not stated) here?
Its Potency is inconclusive: 44.7 µM [inhibitor, partial curve, poor fit].

With `COC[C@@H]1[C@H](C(=O)Nc2ccc(OC)nc2)CCC(=O)N1C` as the compound, how does the Potency read?
Its Potency is inconclusive: 44.7 µM [inhibitor, partial curve, poor fit].

For `Clc1cc(NCC2CCCCC2)n2nccc2n1`, which Potency is on record?
The Potency was inconclusive: 39.8 µM [inhibitor, partial curve, poor fit].

For `CCC(CC)C(=O)N[C@H]1C[C@@H](Cc2cc(COc3ccccc3)on2)C1(C)C`, which Potency is on record?
The Potency was active: 31.6 µM.

Which “activity change, negative = cytotoxicity” value does the source give for `Cc1cccc(CN2C[C@@H]3C(=O)N(CCCN4CCCC4=O)C(=O)[C@@H]3C2)c1` here?
The value was inactive: 6.55%.

For `O=C(NCC(F)(F)F)C1CCN(c2nccc(Nc3ccccc3Cl)n2)CC1`, which Potency is on record?
The Potency was inconclusive: 20 µM [inhibitor, full curve, poor fit].

For `Cc1ccc(NS(=O)(=O)c2ccccc2)c(=O)n1CC(=O)N1CCCCC1`, which “activity change, negative = cytotoxicity” value is on record?
The value was inactive: -21.1%.

With `Cc1ccc(C(=O)N2CCC(c3nn(-c4ccccc4)c(=O)[nH]3)CC2)cc1` as the compound, how does the “activity change, negative = cytotoxicity” value read?
Its value is inactive: -28.8%.

With `Cn1nccc1CN1CCC2(C1)C(=O)N(CCc1ccccc1)c1ccccc12` (configuration not stated) as the compound, how does the Potency read?
Its Potency is active: 35.5 µM and inconclusive: 50.1 µM [inhibitor, partial curve, poor fit].

With `Fc1ccc(-c2noc([C@@H]3Cc4nc[nH]c4CN3CCCc3ccccc3)n2)cc1Cl` as the compound, how does the Potency read?
Its Potency is inconclusive: 50.1 µM [inhibitor, partial curve, poor fit].

For `CNc1ccnc(N2CCCC(CO)(Cc3ccc(F)cc3)C2)n1` (configuration not stated), which Potency is on record?
Its Potency is inconclusive: 50.1 µM [inhibitor, partial curve, poor fit].

Which Potency does the source give for `COc1cccc(OCC(=O)c2ccc3c(c2)N(CCCC(=O)NCc2ccccc2)C(=O)CO3)c1` here?
The Potency was inconclusive: 39.8 µM [inhibitor, full curve, poor fit].

Which “activity change, negative = cytotoxicity” value does the source give for `COc1cccc(CN2CCCC(O)(CN3CCC4(CC3)OCCO4)C2=O)c1` (configuration not stated) here?
The value was inactive: -19.3%.

With `CS(=O)(=O)c1ccc(CN2C[C@@H](F)[C@@H](OCc3nc4ccccc4[nH]3)C2)cc1` as the compound, how does the Potency read?
The Potency was inconclusive: 22.4 µM [inhibitor, partial curve, poor fit].

With `COCCNC(=O)[C@H]1C[C@H](Oc2cccnc2)CN1C(=O)c1cccc(C)c1` as the compound, how does the Potency read?
The Potency was inconclusive: 89.1 µM [inhibitor, single point].

For `O=C1CCN(S(=O)(=O)c2ccccc2)CCCN(C2CCCCCC2)CCN1`, which Potency is on record?
The Potency was inconclusive: 100 µM [inhibitor, single point].

With `Cc1ncoc1C(=O)N1CCc2nnc([C@@H]3C[C@@H](O)CN3C(C)C)n2CC1` as the compound, how does the “activity change, negative = cytotoxicity” value read?
Its value is inactive: -1.64%.

For `CCOC(=O)c1ccc(NC(=O)N2CCC3(CC2)SCC(=O)N3Cc2ccco2)cc1`, which Potency is on record?
The Potency was inconclusive: 56.2 µM [inhibitor, partial curve, poor fit].

Which Potency does the source give for `O=S(=O)(Cc1ccccc1)N[C@H]1CO[C@H]2[C@@H]1OC[C@@H]2Nc1nccc(-c2cccc(F)c2)n1` here?
Its Potency is active: 31.6 µM.

With `Cc1ccc(NC(=O)Cn2c(-c3ccc(F)cc3)nc(C)c(CCO)c2=O)cc1` as the compound, how does the Potency read?
The Potency was inconclusive: 35.5 µM [inhibitor, partial curve, poor fit].

For `COc1ccccc1-c1cc(C(=O)NCc2cccc(C(F)(F)F)c2)nn2cnnc12`, which Potency is on record?
The Potency was active: 39.8 µM.

With `Cc1nn(-c2ccccc2)c(C)c1[C@@H]1C=C[C@@H](NC(=O)c2ccco2)C1` as the compound, how does the Potency read?
The Potency was inconclusive: 79.4 µM [inhibitor, partial curve, poor fit].

For `COc1ccc(-c2nc(C(C)C)nc3c2CCN(C(=O)c2ccc(Cl)nc2)CC3)cc1`, which Potency is on record?
Its Potency is inconclusive: 25.1 µM [inhibitor, partial curve, poor fit] and inconclusive: 56.2 µM [inhibitor, partial curve, poor fit].

For `COc1ccc(-c2cn3cc(C(=O)N4CCN(C)CC4)nc3s2)cc1`, which Potency is on record?
Its Potency is inconclusive: 89.1 µM [inhibitor, single point].

Which “activity change, negative = cytotoxicity” value does the source give for `Cc1[nH]ncc1CNC(=O)CCC[C@H]1NC[C@@H]2C[C@H]1CN(Cc1ccccc1)C2` here?
Its value is inactive: 8.23%.

Which Potency does the source give for `O=C(NCc1ccccc1Cl)c1cn2cc(-c3cccc(C(F)(F)F)c3)sc2n1` here?
Its Potency is inconclusive: 56.2 µM [inhibitor, partial curve, poor fit].

With `COc1ccc(-c2ccc(C(=O)NCCCn3ccnc3C(C)C)cn2)cc1` as the compound, how does the Potency read?
The Potency was inconclusive: 50.1 µM [inhibitor, partial curve, poor fit].

With `Clc1cccc(-c2ccc(CN3CCN(C4CCNC4)CC3)o2)c1` (configuration not stated) as the compound, how does the Potency read?
The Potency was inconclusive: 79.4 µM [inhibitor, partial curve, poor fit].

With `O=C(NC1CCN(Cc2ccccc2)CC1)C1CCc2ncc(-c3ccsc3)n2C1` (configuration not stated) as the compound, how does the Potency read?
Its Potency is inconclusive: 50.1 µM [inhibitor, partial curve, poor fit].

With `Cc1nc(N2CCC(C(=O)NCC3CCCO3)CC2)cc(C(F)(F)F)n1` (configuration not stated) as the compound, how does the “activity change, negative = cytotoxicity” value read?
Its value is inactive: -5.85%.

Which Potency does the source give for `Cc1cc(C(=O)N2CCCC(c3nc(C4CCOCC4)no3)C2)nn1C` (configuration not stated) here?
The Potency was inconclusive: 89.1 µM [inhibitor, single point].

For `COc1ccc(C2=NOC3(CCN(Cc4ccc(F)cc4)C3)C2)cc1` (configuration not stated), which Potency is on record?
The Potency was active: 79.4 µM.

With `O=C1OCC2(CCN(Cc3ccc(Cl)cc3)C2)N1Cc1ccccn1` (configuration not stated) as the compound, how does the Potency read?
The Potency was inconclusive: 100 µM [inhibitor, partial curve, poor fit].

For `Cn1cccc1CN1CCC2(CC1)Cc1ccccc1NC2=O`, which “activity change, negative = cytotoxicity” value is on record?
Its value is inactive: -6.48% [at 172 µM].

Which Potency does the source give for `CC(C)NC(=O)C(NC(=O)c1ccc(F)cc1)C1CCN(C(=O)c2ccccc2F)CC1` (configuration not stated) here?
The Potency was inconclusive: 31.6 µM [inhibitor, full curve].

Which “activity change, negative = cytotoxicity” value does the source give for `COc1ccc(C(=O)NC2CCN(C(=O)c3ccc(-c4cncnc4)cc3)CC2)cc1` here?
The value was inactive: -15.1%.

For `COC(=O)N(C)Cc1ccc(-c2ccccc2)cc1`, which Potency is on record?
The Potency was inconclusive: 100 µM [inhibitor, partial curve, poor fit].

Which Potency does the source give for `O=C(CC1CCCN(c2cnn(CC3CC3)c(=O)c2)C1)N1CCN(c2ccccn2)CC1` (configuration not stated) here?
The Potency was inconclusive: 89.1 µM [inhibitor, single point].

Which Potency does the source give for `COc1ccc(CCN2Cc3cc(NC(=O)c4ccc(OC)cc4)ccc3OC(C)C2=O)cc1` (configuration not stated) here?
The Potency was active: 89.1 µM.

For `Cc1ccc2nc3n(c2c1)[C@@H](CNCc1ccc2c(c1)OCO2)COC3`, which Potency is on record?
Its Potency is inconclusive: 70.8 µM [inhibitor, partial curve, poor fit].

Which Potency does the source give for `COCc1nc(C2CC(N)C2)cc(N(C)Cc2sccc2C)n1` (configuration not stated) here?
The Potency was inconclusive: 15.8 µM [inhibitor, full curve].

For `COc1cccc(-c2ccnc(-c3nnc(C)n3Cc3ccccc3)c2)c1`, which Potency is on record?
Its Potency is inconclusive: 63.1 µM [inhibitor, partial curve, poor fit].

For `O=C1NCCN2CC3(CCN(C(=O)c4ccco4)CC3)CC12` (configuration not stated), which Potency is on record?
Its Potency is inconclusive: 89.1 µM [inhibitor, partial curve, poor fit].

With `COc1cccc(CNC(=O)Cn2c(-c3ccc(F)cc3)nc(C)c(CCO)c2=O)c1` as the compound, how does the Potency read?
The Potency was inconclusive: 50.1 µM [inhibitor, partial curve, poor fit].

For `CCCC(O)CN1CCC(=O)N(Cc2ccccc2)Cc2cc3c(cc21)OCO3` (configuration not stated), which Potency is on record?
The Potency was inconclusive: 70.8 µM [inhibitor, partial curve, poor fit].

Which Potency does the source give for `COc1ccc(-c2cc(N3CCN(C(=O)Cc4ccccc4Br)CC3)n[nH]2)cc1` here?
Its Potency is inconclusive: 50.1 µM [inhibitor, partial curve, poor fit].

For `CC1(C(=O)NCc2cnccn2)CN(Cc2ccccc2)Cc2ccc(Nc3ccccc3)nc21` (configuration not stated), which Potency is on record?
Its Potency is inconclusive: 20 µM [inhibitor, full curve, poor fit].

With `CCc1ccc(N2CC(c3noc(-c4ccc(OC)c(F)c4)n3)CC2=O)cc1` (configuration not stated) as the compound, how does the Potency read?
Its Potency is inconclusive: 89.1 µM [inhibitor, single point].

With `CN1[C@H]2CC[C@@H]1CN(C(=O)c1cc(-c3ccc(O)cc3)n[nH]1)CC2` as the compound, how does the “activity change, negative = cytotoxicity” value read?
Its value is inactive: -5.63%.

For `COc1ccc(C(=O)N2CCC(C(NC(=O)c3ccccc3C)C(=O)NC(C)C(C)C)CC2)cc1` (configuration not stated), which “activity change, negative = cytotoxicity” value is on record?
Its value is inactive: -8.81%.

For `CCN(CC)C(=O)CCc1c(C)nn(-c2ccccc2)c1Oc1ccccc1`, which Potency is on record?
Its Potency is inconclusive: 44.7 µM [inhibitor, partial curve, poor fit].

With `COc1ccccc1-c1cc(-c2ccsc2)c2onc(C)c2n1` as the compound, how does the Potency read?
The Potency was inconclusive: 56.2 µM [inhibitor, full curve, poor fit].

Which “activity change, negative = cytotoxicity” value does the source give for `COc1cccc(-c2c(C(=O)N3CCN(C(C)=O)CC3)nc3sccn23)c1` here?
The value was inactive: -1.67%.

With `CCOC(=O)[C@@H]1[C@@H](OC)C(=O)N(C)C12CCN([S+](=O)([O-])c1ccc(C(C)=O)cc1)CC2` as the compound, how does the “activity change, negative = cytotoxicity” value read?
Its value is inactive: 2.53%.

With `CCc1noc(-c2nc(-c3ccc(OC)c(F)c3)no2)n1` as the compound, how does the “activity change, negative = cytotoxicity” value read?
Its value is inactive: -14.2%.

Which Potency does the source give for `Cc1ccc(-c2cc3c(=O)n(CCNC(=O)Cc4c[nH]c5ccccc45)ccn3n2)c(C)c1` here?
The Potency was active: 39.8 µM.

Which Potency does the source give for `CCNC(=O)N1CC(C(=O)NCc2cccc(F)c2)CC(c2ccc(F)c(C)c2)C1` (configuration not stated) here?
The Potency was inconclusive: 89.1 µM [inhibitor, single point].

For `Cc1ccc(C(=O)N2CCC(Cc3nc(-c4ccccc4)no3)CC2)s1`, which Potency is on record?
Its Potency is active: 31.6 µM.

For `O=C(c1ccc(Cl)cc1)N1CCC2(CC1)OCC(C(=O)N1CCCC1)N2C(=O)c1ccccc1` (configuration not stated), which “activity change, negative = cytotoxicity” value is on record?
Its value is inactive: -10.4%.

For `Cc1ccc(CN2CCC(N3CC(OCC4CC4)C34CCOCC4)CC2)s1` (configuration not stated), which Potency is on record?
Its Potency is inconclusive: 50.1 µM [inhibitor, partial curve, poor fit].

Which Potency does the source give for `COc1cccc(-c2cc(C3CCN(C(=O)Nc4ccccc4Cl)CC3)[nH]n2)c1` here?
The Potency was inconclusive: 79.4 µM [inhibitor, partial curve, poor fit].
